Results on 40 compounds are retold here after the antibiotic and cytotoxicity screens of Wong et al. (2023).

This is one part of the list.

The first experiment has as its system HSkMC (human skeletal muscle cells). The experiment can be described thus: cytotoxicity call (relative viability < 0.9). The conditions noted are these: 10 µM.
With `C[C@@H]1CN([C@H](C)CO)C(=O)Cc2cc(NC(=O)CCC(F)(F)F)ccc2O[C@H]1CN(C)C(=O)Nc1ccc(C(F)(F)F)cc1`, the cytotoxicity call is “inactive”.

For the compound `Cc1noc(C)c1NC(=O)Nc1ccc2c(c1)C(=O)N([C@H](C)CO)C[C@@H](C)[C@H](CN(C)C(=O)Nc1ccccc1)OCCCC[C@@H](C)O2`, the cytotoxicity call is “inactive”.

Turning to `C[C@@H]1CN([C@@H](C)CO)C(=O)c2cc(NC(=O)Nc3ccccc3)ccc2O[C@@H](C)CCCCO[C@H]1CN(C)C(=O)OC(C)(C)C`, the cytotoxicity call was “inactive”.

As for `O=C(C[C@H]1CC[C@H]2[C@@H](COC[C@H](O)CN2S(=O)(=O)c2cccc(Cl)c2)O1)NCCCN1CCOCC1`, the cytotoxicity call was “inactive”.

Take `C[C@@H]1CCCCO[C@H](CN(C)CC2CC2)[C@H](C)CN([C@@H](C)CO)C(=O)c2cc(NC(=O)Nc3ccc(F)cc3)ccc2O1`: the cytotoxicity call is “inactive”.

`C[C@H]1CN([C@@H](C)CO)C(=O)c2cccc(NC(=O)NC3CCCCC3)c2O[C@@H]1CN(C)Cc1ccc(Oc2ccccc2)cc1`: the cytotoxicity call is “inactive”.

Consider `NC(=O)NCC#Cc1ccc2c(c1)[C@]1(C(=O)N2)[C@H](c2ccccc2OCCO)N2[C@H](c3ccccc3)[C@H](c3ccccc3)OC(=O)[C@H]2[C@@H]1C(=O)O`, for which the cytotoxicity call was “inactive”.

As for `C[C@@H]1CN([C@@H](C)CO)C(=O)Cc2cc(NC(=O)Nc3ccc(C(F)(F)F)cc3)ccc2O[C@H]1CN(C)C(=O)Nc1ccc(F)cc1`, the cytotoxicity call was “inactive”.

Turning to `O=C(NCC1(c2nc(-c3ccccc3)cs2)CCOCC1)c1cccc(-c2noc(C(F)(F)F)n2)c1`, the cytotoxicity call was “inactive”.

Take `CC(C)NC(=O)[C@@H]1c2ccccc2C(=O)N(Cc2cc(C(F)(F)F)cc(C(F)(F)F)c2)[C@H]1c1ccc(CO)cc1`: the cytotoxicity call is “inactive”.

`COC(=O)/C=C/C(=O)O`: the cytotoxicity call was “inactive”.

Another experiment has as its system S. aureus RN4220. The experiment can be described thus: growth inhibition call (relative growth <= 0.2). Conditions: 50 µM.
As for `COc1ccc(CN(C)C[C@H]2OCCCC[C@@H](C)Oc3ccc(NC(=O)Nc4cccc5ccccc45)cc3C(=O)N([C@H](C)CO)C[C@H]2C)cc1`, the growth inhibition call is “inactive”.

`C[C@@H]1CN([C@H](C)CO)C(=O)c2cccc(NC(=O)C3CCOCC3)c2O[C@@H]1CN(C)S(=O)(=O)c1ccccc1`: the growth inhibition call was “inactive”.

In the case of `C[C@@H]1CN([C@H](C)CO)C(=O)CCCn2nncc2CO[C@@H]1CN(C)S(=O)(=O)c1ccc(-c2ccccc2)cc1`, the growth inhibition call is “inactive”.

As to `CC(C)NC(=O)N(C)C[C@H]1Oc2ccc(NC(=O)Cc3ccccc3)cc2CC(=O)N([C@H](C)CO)C[C@@H]1C`, the growth inhibition call was “inactive”.

In the case of `Cc1noc(C)c1NC(=O)Nc1ccc2c(c1)C(=O)N([C@@H](C)CO)C[C@@H](C)[C@H](CN(C)Cc1ccc(Cl)c(Cl)c1)OCCCC[C@H](C)O2`, the growth inhibition call is “inactive”.

As for `C[C@@H]1CN([C@H](C)CO)C(=O)Cc2cc(NS(=O)(=O)c3ccc(F)cc3)ccc2O[C@@H]1CN(C)S(=O)(=O)c1cn(C)cn1`, the growth inhibition call is “inactive”.

Regarding `C[C@@H]1CN([C@H](C)CO)C(=O)c2cc(NS(=O)(=O)c3ccc(F)cc3)ccc2O[C@@H](C)CCCCO[C@@H]1CN(C)Cc1ccc2c(c1)OCO2`, the growth inhibition call is “inactive”.

In the case of `C[C@@H]1CN([C@H](C)CO)C(=O)c2c(c3ccccc3n2C)-c2ccccc2CO[C@@H]1CN(C)Cc1ccc(O)cc1`, the growth inhibition call was “inactive”.

Consider `COc1cc2c(cc1OC)C(=O)C(CC1CCN(Cc3ccccc3)CC1)C2.Cl` (stereo unspecified), for which the growth inhibition call is “inactive”.

Turning to `C[C@@H]1CN([C@H](C)CO)C(=O)Cc2cc(NC(=O)Cc3cn(C)c4ccccc34)ccc2O[C@@H]1CN(C)CC1CCCCC1`, the growth inhibition call was “inactive”.

Regarding `CCCCOC(=O)c1ccc(O)cc1`, the growth inhibition call is “inactive”.

Consider `N=C(N)NCCCCN.O=S(=O)(O)O`, for which the growth inhibition call is “inactive”.

For `C[C@@H]1CN([C@H](C)CO)C(=O)c2cccc(NC(=O)c3ccncc3)c2O[C@H]1CN(C)S(=O)(=O)c1ccc(F)cc1`, the growth inhibition call is “inactive”.

On to `C[C@@H]1CCCCO[C@@H](CN(C)CC2CCCCC2)[C@@H](C)CN([C@H](C)CO)C(=O)c2cc(NC(=O)Nc3ccc(F)cc3)ccc2O1`, for which the growth inhibition call is “inactive”.

As to `C[C@@H]1CN([C@@H](C)CO)S(=O)(=O)c2ccc(-c3cccnc3)cc2O[C@H]1CN(C)C(=O)c1cccc(F)c1`, the growth inhibition call was “inactive”.

On to `CCc1nc2ccc(C(=O)N3CCN(C(=O)c4ccco4)CC3)cn2c1N(C)C(=O)COc1ccccc1`, for which the growth inhibition call was “inactive”.

For `COc1cc(C(=O)OCCCN2CCN(CCCOC(=O)c3cc(OC)c(OC)c(OC)c3)CC2)cc(OC)c1OC`, the growth inhibition call is “inactive”.

With `CC(C)NC(=O)N(C)C[C@@H]1OCCCC[C@@H](C)Oc2ccc(NC(=O)C3CCCCC3)cc2C(=O)N([C@H](C)CO)C[C@H]1C`, the growth inhibition call was “inactive”.

For `Cc1noc(C)c1NC(=O)N(C)C[C@H]1Oc2ccc(NC(=O)NC(C)C)cc2CC(=O)N([C@H](C)CO)C[C@H]1C`, the growth inhibition call was “inactive”.

`CN1Cc2c(Cl)cc(Cl)cc2[C@H](c2cccc(S(=O)(=O)NCCOCCOCCNC(=O)NCCCCNC(=O)NCCOCCOCCNS(=O)(=O)c3cccc([C@@H]4CN(C)Cc5c(Cl)cc(Cl)cc54)c3)c2)C1`: the growth inhibition call was “inactive”.

Consider `CCOC(=O)/C=C(C)/C=C/C=C(C)/C=C/c1c(C)cc(OC)c(C)c1C`, for which the growth inhibition call was “inactive”.

On to `C[C@H]1CCCCO[C@@H](CN(C)Cc2ccc3c(c2)OCO3)[C@@H](C)CN([C@@H](C)CO)C(=O)c2cc(NS(=O)(=O)c3ccc(Cl)cc3)ccc2O1`, for which the growth inhibition call was “inactive”.

In the case of `C[C@@H]1CN([C@@H](C)CO)C(=O)c2cc(NC(=O)CCC(F)(F)F)ccc2O[C@@H]1CN(C)Cc1ccc(-c2ccccc2)cc1`, the growth inhibition call was “inactive”.

In the case of `C[C@@H]1CN([C@@H](C)CO)C(=O)Cc2cc(NC(=O)Cn3cnnn3)ccc2O[C@@H]1CN(C)S(=O)(=O)c1cn(C)cn1`, the growth inhibition call is “inactive”.

For `Cc1noc(C)c1S(=O)(=O)N(C)C[C@H]1Oc2c(NC(=O)C3CCCCC3)cccc2C(=O)N([C@H](C)CO)C[C@H]1C`, the growth inhibition call is “inactive”.

Take `COc1ccc(CN(C)C[C@H]2OCCCC[C@@H](C)Oc3ccc(NS(=O)(=O)c4ccc(Cl)cc4)cc3C(=O)N([C@H](C)CO)C[C@@H]2C)cc1`: the growth inhibition call is “inactive”.

As for `COc1ccc(S(=O)(=O)N(C)C[C@H]2Oc3c(NS(=O)(=O)c4ccccc4)cccc3C(=O)N([C@H](C)CO)C[C@H]2C)cc1`, the growth inhibition call is “inactive”.

Take `O=C(CN1CCOCC1)N[C@@H]1CC[C@H](CCNC(=O)Nc2cc(F)ccc2F)O[C@@H]1CO`: the growth inhibition call is “inactive”.

For `COC(=O)[C@H](Cc1ccccc1)N1CC2=CC(=O)[C@H](C3CC3)[C@H]2[C@@H]1[C@@H](O)CCn1cc(-c2cccc(/C=C/C(=O)NO)c2)nn1`, the growth inhibition call is “inactive”.

Turning to `C[C@@H]1CN([C@H](C)CO)C(=O)Cc2cc(NC(=O)CCC(F)(F)F)ccc2O[C@H]1CN(C)C(=O)Nc1ccc(C(F)(F)F)cc1`, the growth inhibition call is “inactive”.

As for `Cc1noc(C)c1NC(=O)Nc1ccc2c(c1)C(=O)N([C@H](C)CO)C[C@@H](C)[C@H](CN(C)C(=O)Nc1ccccc1)OCCCC[C@@H](C)O2`, the growth inhibition call was “inactive”.

Take `C[C@@H]1CN([C@@H](C)CO)C(=O)c2cc(NC(=O)Nc3ccccc3)ccc2O[C@@H](C)CCCCO[C@H]1CN(C)C(=O)OC(C)(C)C`: the growth inhibition call is “inactive”.

In the case of `O=C(C[C@H]1CC[C@H]2[C@@H](COC[C@H](O)CN2S(=O)(=O)c2cccc(Cl)c2)O1)NCCCN1CCOCC1`, the growth inhibition call was “inactive”.

As to `C[C@@H]1CCCCO[C@H](CN(C)CC2CC2)[C@H](C)CN([C@@H](C)CO)C(=O)c2cc(NC(=O)Nc3ccc(F)cc3)ccc2O1`, the growth inhibition call is “inactive”.

In the case of `C[C@H]1CN([C@@H](C)CO)C(=O)c2cccc(NC(=O)NC3CCCCC3)c2O[C@@H]1CN(C)Cc1ccc(Oc2ccccc2)cc1`, the growth inhibition call was “inactive”.

With `NC(=O)NCC#Cc1ccc2c(c1)[C@]1(C(=O)N2)[C@H](c2ccccc2OCCO)N2[C@H](c3ccccc3)[C@H](c3ccccc3)OC(=O)[C@H]2[C@@H]1C(=O)O`, the growth inhibition call was “inactive”.

Consider `C[C@@H]1CN([C@@H](C)CO)C(=O)Cc2cc(NC(=O)Nc3ccc(C(F)(F)F)cc3)ccc2O[C@H]1CN(C)C(=O)Nc1ccc(F)cc1`, for which the growth inhibition call is “inactive”.

With `O=C(NCC1(c2nc(-c3ccccc3)cs2)CCOCC1)c1cccc(-c2noc(C(F)(F)F)n2)c1`, the growth inhibition call was “inactive”.

In the case of `CC(C)NC(=O)[C@@H]1c2ccccc2C(=O)N(Cc2cc(C(F)(F)F)cc(C(F)(F)F)c2)[C@H]1c1ccc(CO)cc1`, the growth inhibition call is “inactive”.

For `COC(=O)/C=C/C(=O)O`, the growth inhibition call was “inactive”.
